Hit rate of the full screen: of about 45,000 compounds, about 200 (0.44%) were called active. Not shown: some 7% with an inconclusive outcome. The call rests on the fitted dose curve; in most records, active means well fitted activation curve with a large enough effect; inconclusive means small, poorly fitted or top-dose-only effect; inactive means no such curve, though single readings can be large or run the other way. The list shows a part of the results.
Assay: qHTS of TDP-43 Inhibitors: NCGC Sytravon Library Screen; further: 0% is about no effect; nearly all actives have a fitted effect of over 55% in size
Conditions: yeast TDP-43 toxicity rescue, BacTiter-Glo growth, 24 h; series mostly up to 46.1 µM; growth rescue (activation): at the top concentration
Text: The goal of this project is to identify new chemical probes capable of reversing the toxicity associated with TDP-43 which is associated with frontotemporal lobar degeneration and amyotrophic lateral sclerosis. These compounds will provide a complementary approach to deciphering the tangled mechanisms of toxicity and protection that we have uncovered through genome-wide genetic screens and are beginning to uncover in a large-scale proteomics analysis with mass spectroscopy. To this end, a miniaturized assay was developed to be screened against the Molecular Libraries Small Molecule Repository (MLSMR) to discover TDP-43 inhibitors. Please note that in the set-up this yeast-based assay compounds that inhibit as TDP-43, have a read-out as activators. NIH Chemical Genomics Center [NCGC] NIH Molecular Libraries Probe Centers Network [MLPCN] Assay Submitter (PI): Susan Lindquist, Whitehead Institute/MIT MLPCN Grant: R21 NS060957
Dispense 2.5 microL yeast galactose medium per 1536-well plate, pin compound, dispense 2.5 microL TDP-43 expressing yeast in galactose medium at OD600=0.02 (pregrown in raffinose medium to mid-log phase) per well, incubate for 24 hr at 30 deg C, and cell growth will be measured using 5 microL of Bactiter/Glo reagent to entire plate and read using Luminescence Protocol in ViewLux.
With `Cc1ccccc1N/N=C/c1sc(=O)n(Cc2cccc(C(=O)O)c2)c1Cl` the “growth rescue (activation)” value was inactive: 11.1%.
For `COc1cc(/C=C2/C(=O)NN(c3ccc(Cl)cc3)C2=O)cc(Br)c1O`, the “growth rescue (activation)” value was inactive: -2.3%.
With `O=C(O)COc1ccccc1/C=N/NC(=O)CSc1nnc(SCc2cccc3ccccc23)s1` the “growth rescue (activation)” value was inactive: -6.35%.
For `CC(C)(C)c1ccc2c(c1)OC(C(=O)N/N=C\c1ccc(-c3cccc(C(=O)O)c3)o1)CO2` (centres undefined), the “growth rescue (activation)” value was inactive: 26.9%.
